# Measurements from the supplement of paper PMC8728848.
# The list shows a part of the results.
# Assays:
# Assay in all cases: glycan array binding signal (z-score within array); higher = stronger binding
# Conditions in all cases: glycan notation: IUPAC condensed, linker removed
# [1] = target: Neu5Ac(a2-3)Gal(b1-3)GlcNAc(b1-2)Man
# Method in brief: (§1)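 The binding signal is a Z-score computed within each array. Data were drawn from 3228 arrays in the Consortium for Functional Glycomics database, restricted to those with a known protein sequence. Scores were averaged over arrays of the same protein sequence at different concentrations or buffers, and over linkers, and negative values can be taken as non-binding.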
# [2] = target: Neu5Ac(a2-3)Gal(b1-3)GlcNAc(b1-2)Man(a1-3)[GlcNAc(b1-4)][Neu5Ac(a2-3)Gal(b1-3)GlcNAc(b1-2)Man(a1-6)]Man(b1-4)GlcNAc(b1-4)GlcNAc
# Method in brief: as §1
# [3] = target: Neu5Ac(a2-3)Gal(b1-3)GlcNAc(b1-2)Man(a1-3)[Neu5Ac(a2-3)Gal(b1-3)GlcNAc(b1-2)Man(a1-6)]Man(b1-4)GlcNAc(b1-4)GlcNAc
# Method in brief: as §1
# [4] = target: Neu5Ac(a2-3)Gal(b1-3)GlcNAc(b1-3)Gal(b1-3)GlcNAc
# Method in brief: as §1
# [5] = target: Neu5Ac(a2-3)Gal(b1-3)GlcNAc(b1-3)Gal(b1-4)GlcNAc
# Method in brief: as §1
# [6] = target: Neu5Ac(a2-3)Gal(b1-3)GlcNAc(b1-3)GalNAc
# Method in brief: as §1
# [7] = target: Neu5Ac(a2-3)Gal(b1-3)GlcNAc(b1-4)Gal(b1-4)Glc
# Method in brief: as §1
# [8] = target: Neu5Ac(a2-3)Gal(b1-3)GlcNAc(b1-6)GalNAc
# Method in brief: as §1
# [9] = target: Neu5Ac(a2-3)Gal(b1-3)GlcNAc6S
# Method in brief: as §1
# [10] = target: Neu5Ac(a2-3)Gal(b1-3)[Fuc(a1-4)]GlcNAc
# Method in brief: as §1
# [11] = target: Neu5Ac(a2-3)Gal(b1-3)[Fuc(a1-4)]GlcNAc(b1-3)Gal(b1-3)[Fuc(a1-4)]GlcNAc
# Method in brief: as §1
# [12] = target: Neu5Ac(a2-3)Gal(b1-3)[Fuc(a1-4)]GlcNAc(b1-3)Gal(b1-4)[Fuc(a1-3)]GlcNAc
# Method in brief: as §1
# [13] = target: Neu5Ac(a2-3)Gal(b1-3)[GlcNAc(b1-6)]GalNAc
# Method in brief: as §1
# [14] = target: Neu5Ac(a2-3)Gal(b1-3)[Neu5Ac(a2-6)]GalNAc
# Method in brief: as §1
# [15] = target: Neu5Ac(a2-3)Gal(b1-3)[Neu5Ac(a2-6)]GlcNAc(b1-3)[Fuc(a1-3)[Gal(b1-4)]GlcNAc(b1-6)]Gal(b1-4)Glc
# Method in brief: as §1
# [16] = target: Neu5Ac(a2-3)Gal(b1-3)]Neu5Ac(a2-3)Gal(b1-4)]GlcNAc
# Method in brief: as §1
# [17] = target: Neu5Ac(a2-3)Gal(b1-4)Glc
# Method in brief: as §1
# [18] = target: Neu5Ac(a2-3)Gal(b1-4)GlcNAc
# Method in brief: as §1
# [19] = target: Neu5Ac(a2-3)Gal(b1-4)GlcNAc(b1-2)Man
# Method in brief: as §1
# [20] = target: Neu5Ac(a2-3)Gal(b1-4)GlcNAc(b1-2)Man(a1-3)[GlcNAc(b1-4)][Neu5Ac(a2-3)Gal(b1-4)GlcNAc(b1-2)Man(a1-6)]Man(b1-4)GlcNAc(b1-4)GlcNAc
# Method in brief: as §1
# [21] = target: Neu5Ac(a2-3)Gal(b1-4)GlcNAc(b1-2)Man(a1-3)[Neu5Ac(a2-3)Gal(b1-4)GlcNAc(b1-2)Man(a1-6)]Man(b1-4)GlcNAc(b1-4)GlcNAc
# Method in brief: as §1
# [22] = target: Neu5Ac(a2-3)Gal(b1-4)GlcNAc(b1-2)Man(a1-3)[Neu5Ac(a2-3)Gal(b1-4)GlcNAc(b1-2)Man(a1-6)]Man(b1-4)GlcNAc(b1-4)[Fuc(a1-6)]GlcNAc
# Method in brief: as §1
# [23] = target: Neu5Ac(a2-3)Gal(b1-4)GlcNAc(b1-2)Man(a1-3)[Neu5Ac(a2-6)Gal(b1-4)GlcNAc(b1-2)Man(a1-6)]Man(b1-4)GlcNAc(b1-4)GlcNAc
# Method in brief: as §1
# [24] = target: Neu5Ac(a2-3)Gal(b1-4)GlcNAc(b1-2)[Neu5Ac(a2-3)Gal(b1-4)GlcNAc(b1-4)]Man(a1-3)[GlcNAc(b1-4)][Neu5Ac(a2-3)Gal(b1-4)GlcNAc(b1-2)[Neu5Ac(a2-3)Gal(b1-4)GlcNAc(b1-6)]Man(a1-6)]Man(b1-4)GlcNAc(b1-4)GlcNAc
# Method in brief: as §1
# [25] = target: Neu5Ac(a2-3)Gal(b1-4)GlcNAc(b1-2)[Neu5Ac(a2-3)Gal(b1-4)GlcNAc(b1-4)]Man(a1-3)[GlcNAc(b1-4)][Neu5Ac(a2-3)Gal(b1-4)GlcNAc(b1-4)Man(a1-6)]Man(b1-4)GlcNAc(b1-4)GlcNAc
# Method in brief: as §1
# [26] = target: Neu5Ac(a2-3)Gal(b1-4)GlcNAc(b1-2)[Neu5Ac(a2-3)Gal(b1-4)GlcNAc(b1-6)]Man(a1-6)[Neu5Ac(a2-3)Gal(b1-4)GlcNAc(b1-2)Man(a1-3)]Man(b1-4)GlcNAc(b1-4)GlcNAc
# Method in brief: as §1
# [27] = target: Neu5Ac(a2-3)Gal(b1-4)GlcNAc(b1-2)[Neu5Ac(a2-3)Gal(b1-4)GlcNAc(b1-6)]Man(a1-6)[Neu5Ac(a2-3)Gal(b1-4)GlcNAc(b1-2)Man(a1-3)][GlcNAc(b1-4)]Man(b1-4)GlcNAc(b1-4)GlcNAc
# Method in brief: as §1
# [28] = target: Neu5Ac(a2-3)Gal(b1-4)GlcNAc(b1-3)Gal
# Method in brief: as §1
# [29] = target: Neu5Ac(a2-3)Gal(b1-4)GlcNAc(b1-3)Gal(b1-3)GlcNAc
# Method in brief: as §1
# [30] = target: Neu5Ac(a2-3)Gal(b1-4)GlcNAc(b1-3)Gal(b1-4)GlcNAc
# Method in brief: as §1
# [31] = target: Neu5Ac(a2-3)Gal(b1-4)GlcNAc(b1-3)Gal(b1-4)GlcNAc(b1-2)Man(a1-3)[Neu5Ac(a2-3)Gal(b1-4)GlcNAc(b1-3)Gal(b1-4)GlcNAc(b1-2)Man(a1-6)]Man(b1-4)GlcNAc(b1-4)GlcNAc
# Method in brief: as §1
# [32] = target: Neu5Ac(a2-3)Gal(b1-4)GlcNAc(b1-3)Gal(b1-4)GlcNAc(b1-3)Gal(b1-4)GlcNAc
# Method in brief: as §1
# [33] = target: Neu5Ac(a2-3)Gal(b1-4)GlcNAc(b1-3)Gal(b1-4)GlcNAc(b1-3)Gal(b1-4)GlcNAc(b1-2)Man(a1-3)[Neu5Ac(a2-3)Gal(b1-4)GlcNAc(b1-3)Gal(b1-4)GlcNAc(b1-3)Gal(b1-4)GlcNAc(b1-2)Man(a1-6)]GalNAc
# Method in brief: as §1
# [34] = target: Neu5Ac(a2-3)Gal(b1-4)GlcNAc(b1-3)Gal(b1-4)GlcNAc(b1-3)GalNAc
# Method in brief: as §1
# [35] = target: Neu5Ac(a2-3)Gal(b1-4)GlcNAc(b1-3)Gal(b1-4)GlcNAc(b1-3)[Neu5Ac(a2-3)Gal(b1-4)GlcNAc(b1-3)Gal(b1-4)GlcNAc(b1-6)]GalNAc
# Method in brief: as §1
# [36] = target: Neu5Ac(a2-3)Gal(b1-4)GlcNAc(b1-3)Gal(b1-4)GlcNAc(b1-6)[Gal(b1-3)]GalNAc
# Method in brief: as §1
# [37] = target: Neu5Ac(a2-3)Gal(b1-4)GlcNAc(b1-3)Gal(b1-4)[Fuc(a1-3)]GlcNAc
# Method in brief: as §1
# [38] = target: Neu5Ac(a2-3)Gal(b1-4)GlcNAc(b1-3)GalNAc
# Method in brief: as §1
binder,measurement,setting,value
"Epa3 (Candida glabrata), Q6VBI8_CANGB (protein) MGSSHHHHHHSSGLVPRGSHMNDLGFSLFEKRELSSQNPFGYPIGCSPQDVAIIPGLTMELYSYPIVSGTPPNCYDASYVDPEYPRTGYLKRKMVGKSTGVTGNLNYKYSVEKACMVKYGNLPAGYNYNEPLTVSNFTMILYGYFKAQTTGLHTFFVNADDLLYINFGAGNAFDCCKREDSKTKLGEYVAYDIWHVDSSKNKVSLFLEKDLYYPIRMFFNNIGKDSSLDLSFSVNGATDQISDFSGYLYSVPDQPDTCPAHIGYDTTCR",glycan array binding signal (z-score),[1],-0.25
same,glycan array binding signal (z-score),[2],-0.394
same,glycan array binding signal (z-score),[3],-0.323
same,glycan array binding signal (z-score),[4],-0.312
same,glycan array binding signal (z-score),[5],-0.339
same,glycan array binding signal (z-score),[6],-0.371
same,glycan array binding signal (z-score),[7],0.022
same,glycan array binding signal (z-score),[8],-0.336
same,glycan array binding signal (z-score),[9],-0.41
same,glycan array binding signal (z-score),[10],-0.237
same,glycan array binding signal (z-score),[11],-0.181
same,glycan array binding signal (z-score),[12],-0.206
same,glycan array binding signal (z-score),[13],-0.303
same,glycan array binding signal (z-score),[14],-0.038
same,glycan array binding signal (z-score),[15],-0.338
same,glycan array binding signal (z-score),[16],-0.394
same,glycan array binding signal (z-score),[17],-0.174
same,glycan array binding signal (z-score),[18],-0.115
same,glycan array binding signal (z-score),[19],0.518
same,glycan array binding signal (z-score),[20],-0.348
same,glycan array binding signal (z-score),[21],-0.184
same,glycan array binding signal (z-score),[22],0.122
same,glycan array binding signal (z-score),[23],-0.3
same,glycan array binding signal (z-score),[24],-0.169
same,glycan array binding signal (z-score),[25],-0.312
same,glycan array binding signal (z-score),[26],-0.15
same,glycan array binding signal (z-score),[27],-0.387
same,glycan array binding signal (z-score),[28],-0.282
same,glycan array binding signal (z-score),[29],-0.245
same,glycan array binding signal (z-score),[30],-0.267
same,glycan array binding signal (z-score),[31],0.252
same,glycan array binding signal (z-score),[32],-0.435
same,glycan array binding signal (z-score),[33],0.301
same,glycan array binding signal (z-score),[34],-0.372
same,glycan array binding signal (z-score),[35],-0.137
same,glycan array binding signal (z-score),[36],0.322
same,glycan array binding signal (z-score),[37],-0.306
same,glycan array binding signal (z-score),[38],-0.275
